In patent US20230159453A1 (COCRYSTAL PHARMA, INC., priority 2020, published 2023):

molecular target: Noro protease (Norovirus, UniProt Q83883); test: Norovirus protease inhibition assay (Noro-Norwalk FRET protease assay); conditions: IC50 (μM), peptide substrate 10 μM, 90 minutes at 37° C., compounds 200 μM to 10.2 nM

How did the IC50 turn out when `CCOP(=O)(OCC)C(O)C(CC1CC2(CCN(C(C)=O)CC2)NC1=O)NC(=O)C(CC(C)C)NC(=O)OCc1cccc(Cl)c1` (stereo in doubt) [Compound C69, 3-Chlorobenzyl ((2R)-1-((3-(8-acetyl-2-oxo-1,8-diazaspiro[4.5]decan-3-yl)-1-(diethoxyphosphoryl)-1-hydroxypropan-2-yl)amino)-4-methyl-1-oxopentan-2-yl)carbamate] was run?
Its IC50 is over 200 µM.

How did the IC50 turn out when `CCOP(=O)(OCC)C(O)C(CC1CC2(CCCCC2)NC1=O)NC(=O)C(CC(C)C)NC(=O)OCc1cccc(Cl)c1` (stereo in doubt) [Compound C85, 3-Chlorobenzyl ((2R)-1-((1-(diethoxyphosphoryl)-1-hydroxy-3-(2-oxo-1-azaspiro[4.5]decan-3-yl)propan-2-yl)amino)-4-methyl-1-oxopentan-2-yl)carbamate] was run?
The IC50 was 143 µM.

With `CC(C)C[C@H](NC(=O)OC1CCCC1Cc1ccccc1)C(=O)NC(C[C@@H]1CCNC1=O)C(=O)C(=O)NC1CC1` (stereo in doubt) [Compound C89, 2-Benzylcyclopentyl ((S)-1-(((R)-4-(cyclopropylamino)-3,4-dioxo-1-((S)-2-oxopyrrolidin-3-yl)butan-2-yl)amino)-4-methyl-1-oxopentan-2-yl)carbamate] as the compound, how does the IC50 read?
Its IC50 is 99.2 µM.

For `CCCC1CCC(OC(=O)NC(CC(C)C)C(=O)NC(CC2CC3(CCN(C(C)=O)CC3)NC2=O)C(O)P(=O)(OCC)OCC)CC1` (stereo in doubt) [Compound C91, 4-Propylcyclohexyl ((2R)-1-((3-(8-acetyl-2-oxo-1,8-diazaspiro[4.5]decan-3-yl)-1-(diethoxyphosphoryl)-1-hydroxypropan-2-yl)amino)-4-methyl-1-oxopentan-2-yl)carbamate], which IC50 is on record?
The IC50 was over 200 µM.

Which IC50 does the source give for `CC(=O)N1CCC2(CC1)CC(CC(NC(=O)C(Cc1ccccc1)NC(=O)c1cnc3ccccc3n1)C(=O)C(N)=O)C(=O)N2` (stereo in doubt) [Compound C130, N-((2S)-1-((1-(8-acetyl-2-oxo-1,8-diazaspiro[4.5]decan-3-yl)-4-amino-3,4-dioxobutan-2-yl)amino)-1-oxo-3-phenylpropan-2-yl)quinoxaline-2-carboxamide] here?
Its IC50 is over 200 µM.

With `CC(=O)N1CCC2(CC1)CC(CC(C=O)NC(=O)[C@H](CC1CCCCC1)NC(=O)OCc1cccc(Cl)c1)C(=O)N2` (stereo partly drawn) [Compound C32, 3-Chlorobenzyl ((2S)-1-((1-(8-acetyl-2-oxo-1,8-diazaspiro[4.5]decan-3-yl)-3-oxopropan-2-yl)amino)-3-cyclohexyl-1-oxopropan-2-yl)carbamate] as the compound, how does the IC50 read?
Its IC50 is 4.2 µM.

`CC(C)C[C@H](NC(=O)N(Cc1ccccc1)C1CCN(C(=O)OC(C)(C)C)CC1)C(=O)N[C@H](C=O)C[C@@H]1CCNC1=O` [Compound C37, Tert-butyl 4-(1-benzyl-3-((S)-4-methyl-1-oxo-1-(((S)-1-oxo-3-((S)-2-oxopyrrolidin-3-yl)propan-2-yl)amino)pentan-2-yl)ureido)piperidine-1-carboxylate] was tested. Which IC50 did it give?
The IC50 was 26 µM.

With `CC(C)C[C@H](NC(=O)OC(Cc1ccccc1)c1ccccc1)C(=O)N[C@H](C=O)C[C@@H]1CCNC1=O` (stereo partly drawn) [Compound C38, 1,2-Diphenylethyl ((S)-4-methyl-1-oxo-1-(((S)-1-oxo-3-((S)-2-oxopyrrolidin-3-yl)propan-2-yl)amino)pentan-2-yl)carbamate] as the compound, how does the IC50 read?
The IC50 was 3.7 µM.

`CC(C)C[C@H](NC(=O)OC1CCCC1Cc1ccccc1)C(=O)N[C@H](C=O)C[C@@H]1CCNC1=O` (stereo partly drawn) [Compound C43, 2-benzylcyclopentyl ((S)-4-methyl-1-oxo-1-(((S)-1-oxo-3-((S)-2-oxopyrrolidin-3-yl)propan-2-yl)amino)pentan-2-yl) carbamate] was tested. Which IC50 did it give?
The IC50 was 5.9 µM.

Which IC50 does the source give for `O=CC(CC1CC(Cc2ccccc2)NC1=O)NC(=O)[C@H](CC1CCCCC1)NC(=O)OCc1cccc(Cl)c1` (stereo partly drawn) [Compound C52, 3-Chlorobenzyl ((2S)-1-((1-(5-benzyl-2-oxopyrrolidin-3-yl)-3-oxopropan-2-yl)amino)-3-cyclohexyl-1-oxopropan-2-yl)carbamate] here?
Its IC50 is 9.2 µM.

For `CC(=O)N1CCC2(CC1)CC(CC(C=O)NC(=O)[C@H](CC(C)C)NC(=O)OCc1cccc(Cl)c1)C(=O)N2` (stereo partly drawn) [Compound C54, 3-Chlorobenzyl ((2S)-1-((1-(8-acetyl-2-oxo-1,8-diazaspiro[4.5]decan-3-yl)-3-oxopropan-2-yl)amino)-4-methyl-1-oxopentan-2-yl)carbamate], which IC50 is on record?
Its IC50 is 7 µM.

For `CC(C)C[C@H](NC(=O)OCc1cccc(Cl)c1)C(=O)NC(C=O)CC1CC2(CCCCC2)NC1=O` (stereo partly drawn) [Compound C66, 3-Chlorobenzyl ((2S)-4-methyl-1-oxo-1-((1-oxo-3-(2-oxo-1-azaspiro[4.5]decan-3-yl)propan-2-yl)amino)pentan-2-yl)carbamate], which IC50 is on record?
The IC50 was 10.9 µM.

With `CC(=O)N1CCC2(CC1)CC(CC(C=O)NC(=O)[C@H](Cc1cccc(F)c1)NC(=O)OCc1cccc(Cl)c1)C(=O)N2` (stereo partly drawn) [Compound C67, 3-Chlorobenzyl ((2S)-1-((1-(8-acetyl-2-oxo-1,8-diazaspiro[4.5]decan-3-yl)-3-oxopropan-2-yl)amino)-3-(3-fluorophenyl)-1-oxopropan-2-yl)carbamate] as the compound, how does the IC50 read?
The IC50 was 9.1 µM.

Which IC50 does the source give for `CC(C)C[C@H](NC(=O)OC(Cc1ccccc1)c1ccccc1)C(=O)N[C@@H](C[C@@H]1CCNC1=O)C(=O)C(=O)NCc1ccccn1` (stereo partly drawn) [Compound C68, 1,2-Diphenylethyl ((S)-1-(((S)-3,4-dioxo-1-((S)-2-oxopyrrolidin-3-yl)-4-((pyridin-2-ylmethyl)amino)butan-2-yl)amino)-4-methyl-1-oxopentan-2-yl)carbamate] here?
Its IC50 is over 200 µM.

Which IC50 does the source give for `CC(=O)N1CCC2(CC1)CC(CC(C=O)NC(=O)[C@H](CC(C)C)NC(=O)OCC(C)(C)c1cccc(Cl)c1)C(=O)N2` (stereo partly drawn) [Compound C70, 2-(3-Chlorophenyl)-2-methylpropyl ((2S)-1-((1-(8-acetyl-2-oxo-1,8-diazaspiro[4.5]decan-3-yl)-3-oxopropan-2-yl)amino)-4-methyl-1-oxopentan-2-yl)carbamate] here?
Its IC50 is 5.2 µM.

For `CC(C)C[C@H](NC(=O)OC1(Cc2cccnc2)CC1)C(=O)N[C@H](C=O)C[C@@H]1CCNC1=O` [Compound C71, 1-(Pyridin-3-ylmethyl)cyclopropyl ((S)-4-methyl-1-oxo-1-(((S)-1-oxo-3-((S)-2-oxopyrrolidin-3-yl)propan-2-yl)amino)pentan-2-yl)carbamate], which IC50 is on record?
Its IC50 is 87 µM.

With `CC(C)C[C@H](NC(=O)OCC(C)(C)c1cccc(Cl)c1)C(=O)N[C@@H](C[C@@H]1CCNC1=O)C(O)S(=O)(=O)O` (stereo partly drawn) [Compound C72, Sodium (2S)-2-((S)-2-(((2-(3-chlorophenyl)-2-methylpropoxy)carbonyl)amino)-4-methylpentanamido)-1-hydroxy-3-((S)-2-oxopyrrolidin-3-yl)propane-1-sulfonate] as the compound, how does the IC50 read?
Its IC50 is 2.3 µM.

With `CC(C)C[C@H](NC(=O)OC1(Cc2ccccc2)CCC1)C(=O)N[C@@H](C[C@@H]1CCNC1=O)C(=O)C(N)=O` [Compound C73, 1-Benzylcyclobutyl ((S)-1-(((S)-4-amino-3,4-dioxo-1-((S)-2-oxopyrrolidin-3-yl)butan-2-yl)amino)-4-methyl-1-oxopentan-2-yl)carbamate] as the compound, how does the IC50 read?
The IC50 was 39.1 µM.

How did the IC50 turn out when `CC(=O)N1CCC2(CC1)CC(CC(C=O)NC(=O)[C@H](CC(C)C)NC(=O)c1cc3ccccc3[nH]1)C(=O)N2` (stereo partly drawn) [Compound C74, N-((2S)-1-((1-(8-acetyl-2-oxo-1,8-diazaspiro[4.5]decan-3-yl)-3-oxopropan-2-yl)amino)-4-methyl-1-oxopentan-2-yl)-1H-indole-2-carboxamide] was run?
The IC50 was 16.4 µM.

With `CC(=O)N1CCC2(CC1)CC(CC(C=O)NC(=O)[C@H](CC1CCCCC1)NC(=O)c1cc3ccccc3[nH]1)C(=O)N2` (stereo partly drawn) [Compound C75, N-((2S)-1-((1-(8-acetyl-2-oxo-1,8-diazaspiro[4.5]decan-3-yl)-3-oxopropan-2-yl)amino)-3-cyclohexyl-1-oxopropan-2-yl)-1H-indole-2-carboxamide] as the compound, how does the IC50 read?
Its IC50 is 8.1 µM.

`CC(C)C[C@H](NC(=O)OC1(Cc2cccc(OCc3ccccc3)c2)CC1)C(=O)N[C@@H](CC1CCNC1=O)C(O)S(=O)(=O)O` (stereo partly drawn) [Compound C76, Sodium (2S)-2-((S)-2-(((1-(3-(benzyloxy)benzyl)cyclopropoxy)carbonyl)amino)-4-methylpentanamido)-1-hydroxy-3-((S)-2-oxopyrrolidin-3-yl)propane-1-sulfonate] was tested. Which IC50 did it give?
Its IC50 is 10.5 µM.

How did the IC50 turn out when `CCCC1CCC(OC(=O)N[C@@H](CC(C)C)C(=O)NC(C=O)CC2CC3(CCN(C(C)=O)CC3)NC2=O)CC1` (stereo partly drawn) [Compound C77, 4-Propylcyclohexyl ((2S)-1-((1-(8-acetyl-2-oxo-1,8-diazaspiro[4.5]decan-3-yl)-3-oxopropan-2-yl)amino)-4-methyl-1-oxopentan-2-yl)carbamate] was run?
Its IC50 is 32.6 µM.

`CC(C)C[C@H](NC(=O)OC(C)(C)Cc1ccccc1)C(=O)N[C@@H](C[C@@H]1CCNC1=O)C(=O)C(N)=O` [Compound C79] was tested. Which IC50 did it give?
Its IC50 is over 200 µM.

For `CCOP(=O)(OCC)C(O)C(CC1CC2(CCN(C(C)=O)CC2)NC1=O)NC(=O)[C@H](CC1CCCCC1)NC(=O)c1cc2ccccc2[nH]1` (stereo partly drawn) [Compound C81, Diethyl (3-(8-acetyl-2-oxo-1,8-diazaspiro[4.5]decan-3-yl)-2-((S)-3-cyclohexyl-2-(1H-indole-2-carboxamido)propanamido)-1-hydroxypropyl)phosphonate], which IC50 is on record?
Its IC50 is 23.9 µM.

For `CCOP(=O)(OCC)C(O)C(CC1CC2(CCN(C(C)=O)CC2)NC1=O)NC(=O)[C@H](Cc1cccc(F)c1)NC(=O)OCc1cccc(Cl)c1` (stereo partly drawn) [Compound C82, 3-Chlorobenzyl ((2S)-1-((3-(8-acetyl-2-oxo-1,8-diazaspiro[4.5]decan-3-yl)-1-(diethoxyphosphoryl)-1-hydroxypropan-2-yl)amino)-3-(3-fluorophenyl)-1-oxopropan-2-yl)carbamate], which IC50 is on record?
Its IC50 is 127 µM.

With `CC(C)C[C@H](NC(=O)OCC(C)(C)c1cccc(Cl)c1)C(=O)NC(C)(C=O)CC1CCNC1=O` (stereo partly drawn) [Compound C83, 2-(3-Chlorophenyl)-2-methylpropyl ((2S)-4-methyl-1-((2-methyl-1-oxo-3-(2-oxopyrrolidin-3-yl)propan-2-yl)amino)-1-oxopentan-2-yl) carbamate] as the compound, how does the IC50 read?
The IC50 was over 200 µM.
